Measured values published in US20240301031A1 (JIANGSU HENGRUI PHARMACEUTICALS, published 2024).

How the values were obtained:
[1] = target: BAFF (R&D Systems, 7537-BF) (UniProt Q9Y275 part only); test: cell-based or functional assay
[2] = target: T1, IL-23 (R&D Systems, 1290-IL-010) (UniProt Q9NPF7 20-189; P29460 23-328); test: cell-based or functional assay
T1 sequence (looked up) 1: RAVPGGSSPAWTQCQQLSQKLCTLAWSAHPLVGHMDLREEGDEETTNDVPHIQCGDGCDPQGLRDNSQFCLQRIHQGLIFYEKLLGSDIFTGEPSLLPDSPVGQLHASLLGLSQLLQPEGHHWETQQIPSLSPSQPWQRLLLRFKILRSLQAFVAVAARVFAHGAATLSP
T1 sequence (looked up) 2: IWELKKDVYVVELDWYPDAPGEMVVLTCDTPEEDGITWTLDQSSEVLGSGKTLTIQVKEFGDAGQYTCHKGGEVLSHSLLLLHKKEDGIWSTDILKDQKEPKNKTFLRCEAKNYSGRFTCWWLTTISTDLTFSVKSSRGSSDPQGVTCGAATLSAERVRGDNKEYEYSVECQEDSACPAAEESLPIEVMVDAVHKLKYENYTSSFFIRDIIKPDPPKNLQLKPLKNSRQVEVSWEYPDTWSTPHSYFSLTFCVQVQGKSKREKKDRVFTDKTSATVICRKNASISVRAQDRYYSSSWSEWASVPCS

[3] = target: T2, human BAFF (10056-HNCH, Sino biological) (human, UniProt Q9Y275 part only); test: ELISA, BAFF coated, sample titrated
T2 construct: Bought protein
Procedure: (§1) The binding activity of the antibodies or fusion proteins for BAFF, APRIL, and IL-12/23 p40 was assayed by the ELISA method (coating an antigen protein). The specific procedures were as follows:
(§2) A BAFF (Sino biological, 10056-HNCH), APRIL (R&D Systems, 5860-AP-010/CF), or IL-12/23 p40 (Sino biological, 10052-H08H) protein was diluted to 1 μg/mL with a PBS (BasalMedia, B320) buffer at pH 7.4, and added to a 96-well microplate (Corning, 3590) at 100 μL/well. The plate was incubated at 4° C. overnight. After the liquid was discarded, 300 μL of 5% skim milk (BD, 232100) diluted with PBS was added to each well for blocking, and the plate was incubated at 37° C. for 2 h. After the blocking was completed, the blocking solution was discarded, and the plate was washed 3 times with a PBST buffer (PBS at pH 7.4 containing 0.1% tween-20). 100 μL of test antibody or fusion protein solution diluted in a gradient was added to each well, and the plate was incubated at 37° C. for 1 h. After the incubation was completed, the plate was washed 3 times with PBST. […] The plate was washed 3 times with PBST. […] The plate was read for absorbance values at 450 nm on a microplate reader, the binding curves of the antibodies to an antigen were fitted with software, and the EC₅₀ values were calculated.

[4] = target: T3, human APRIL (5860-AP-010/CF, R&D Systems) (human, UniProt O75888 115-250, limits assumed); test: ELISA, APRIL coated, sample titrated
T3 construct: Bought protein
T3 sequence (looked up): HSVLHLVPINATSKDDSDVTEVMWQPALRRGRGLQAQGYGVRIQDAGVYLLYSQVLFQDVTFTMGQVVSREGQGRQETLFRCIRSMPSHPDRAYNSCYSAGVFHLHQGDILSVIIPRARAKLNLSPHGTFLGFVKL
Procedure: as §1, §2

[5] = target: T4, IL-12/23 p40 (Sino biological, 10052-H08H) (UniProt P29460 23-328); test: ELISA, IL-12/23 p40 coated, sample titrated
T4 construct: Bought protein
T4 sequence (looked up): T1 sequence (looked up) 2
Procedure: as §1, §2

[6] = target: T2, human BAFF (10056-HNCH, Sino biological); test: competition ELISA: biotin-labeled BAFF to coated BCMA
Procedure: (§3) A receptor protein was diluted to 2 μg/mL with PBS at pH 7.4 (BasalMedia, B320) and added to a 96-well microplate (Corning, 3590) at 100 μL/well. The plate was incubated at 4° C. overnight. After the liquid was discarded, 200 μL of 1% Casein blocking solution (Thermo, 37528) was added to each well for blocking, and the plate was incubated at 37° C. for 2 h. After the blocking was completed, the blocking solution was discarded, and the plate was washed 3 times with a PBST buffer (PBS at pH 7.4 containing 0.1% tween-20) for later use. A biotin-labeled ligand protein at a fixed concentration was mixed with the antibody or fusion protein diluted in gradient, pre-incubated at 37° C. for 30 min, and added to a blocked microplate. The plate was incubated at 37° C. for 1.5 h. After the incubation was completed, the plate was washed 3 times with PBST. 100 μL of streptavidin-HRP (Invitrogen, 434323, diluted at a ratio of 1:4000) was added to each well, and the plate was incubated at 37° C. for 1 h. The supernatant was removed, and the plate was washed 3 times with PBST. […] The plate was read for absorbance values at 450 nm on a microplate reader, the curves for the inhibition of the binding of the ligands to the receptors were fitted with software, and the IC₅₀ values were calculated. […]

[7] = target: T2, human BAFF (10056-HNCH, Sino biological); test: competition ELISA: biotin-labeled BAFF to coated TACI
Procedure: as §3

[8] = target: T4, IL-12/23 p40 (Sino biological, …); test: competition ELISA: biotin-labeled p40 to coated IL-12Rβ1
Procedure: as §3

IC50 (nM) for the inhibition of the BAFF-induced B cell proliferation [1]: 0.0672 nM | IC50 (nM) for the inhibition of IL-23-induced IL-17 secretion [2]: 1.69 nM | EC50 [3]: 3.75 nM | EC50 [4]: 1.84 nM | EC50 [5]: 0.619 nM | IC50 [6]: 0.143 nM | IC50 [7]: 0.253 nM | IC50 [8]: 2.06 nM
B1: TACI-Mab1 (other)
heavy: EVQLVQSGAEVKKPGESLKISCKGSGYSFTTYWLGWVRQMPGKGLDWIGIMSPVDSDIRYSPSFQGQVTMSVDKSITTAYLQWNSLKASDTAMYYCARRRPGQGYFDFWGQGTLVTVSS[omitted - human IgG1 constant region]GGSSTSCREEQGEFYDHLLRDCISCASICGQHPKQCAAFCENK
light: [omitted - about 200 residues]
notes: also called TACI antibody fusion protein

IC50 (nM) for the inhibition of the BAFF-induced B cell proliferation [1]: 0.0571 nM | IC50 (nM) for the inhibition of IL-23-induced IL-17 secretion [2]: 2.34 nM | EC50 [3]: 4.79 nM | EC50 [4]: 1.29 nM | EC50 [5]: 0.542 nM | IC50 [6]: 0.195 nM | IC50 [7]: 0.184 nM | IC50 [8]: 2.08 nM
B2: TACI-Mab2 (other)
heavy: B1 heavy
light: STSCREEQGEFYDHLLRDCISCASICGQHPKQCAAFCENKLGGGGSGGGGSGGGGS[omitted - about 200 residues]
notes: as for B1

Each block holds one binder with its values, some of them ahead of it.
